Test results taken from the supplement of paper PMC10126150.
Sequences with one replicate were seen in a single cluster, so their values are uncertain.

Test system: ATP
Assay: switch fluorescence ratio, 500 uM ATP over buffer (Cy3 cluster intensity, sum of 5 cycles each) (fold (ratio)); higher = stronger signal-on switching upon ATP binding; sequences stand for … in TCGTCGGCAGCGTCAGATGTGTATAAGAGACAGTTTTTTTTTTTTTTTTTTTTTTTTT…TC
Conditions: aptamer strand: ATP DNA aptamer (quencher-CACCTGGGGGAGTATTGCGGAGGAAGG + anchor), 100 nM annealed; ATP concentration: 500 uM; one replicate
In short: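 After annealing to 100 nM quencher-labelled ATP aptamer, Cy3-labelled switching-strand clusters on a modified Illumina MiSeq flow-cell were imaged in selection buffer. A second image followed after 15 min with 500 uM ATP at 22 °C, and five such buffer/ATP cycles were done, each separated by NaOH stripping and re-annealing. The fluorescence ratio, averaged per switch-domain sequence, is summed target-cycle over summed buffer-cycle Cy3 intensity per cluster, with clusters outside 100-1000 RFU excluded.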
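Also: ATP exposure 15 min at 22 °C before imaging.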

Sequence | switch fluorescence ratio
TGGTTGTGCC | 1.03
AGTCTGCGTA | 1.01
CGTAATAGCC | 1.2
TAAGAGTAGT | 0.996
GATGTATTCA | 1.05
GAGAGGACTA | 0.973
AGCCGAGAGG | 0.988
GGATCCTCTA | 0.982
CCCATGTTTG | 0.997
GTTCCAGGTT | 1.06
CTTCCCCATA | 1.06
AATAAGGTCG | 0.932
TTGGGGGA | 1.03
AACCTGAATG | 1.07
TGGCTGCGGG | 0.983
AGTATTATCT | 1.02
TACTCGCTCT | 1.06
GCCTATGATG | 0.972
TTTACGACTC | 1.2
AATCACTCGA | 0.978
AGATTACACT | 0.996
GTGACTTTA | 1.02
ATATGCTGGG | 0.982
TATTCCCGCT | 1.87
CCGCGATTGA | 2.61
CTAGCGGTTG | 0.988

Sequence | switch fluorescence ratio
TTGGTCAGAT | 0.991
AACAATTGAT | 0.977
GATCCTTTTC | 1.11
TATGCCTTCA | 1.16
ACTTCAATT | 0.983
CCGGGTCCTA | 0.964
AGGCGGAGAT | 1.01
GTCGGGAAAA | 1.07
GCACTAGCAT | 1.03
ATTTGACGCT | 0.986
TGTTCGAGCG | 1.02
ACTTAGTTGT | 1.07
GGCATACTCT | 2.16
ATGAATTGG | 0.995
GTCGCTCGGG | 0.972
AGGAAGAGC | 1.02
ATGATTCAAG | 1
TTGCGTTAGT | 1.04
TGGGCAACTT | 0.983
GAGGCATTCA | 1.03
ACAGATTCGA | 0.96
GACATTCCAG | 1.02
TTTAAAGCG | 1.02
GAAACGAAAA | 0.947
CTAATCCTTT | 0.928
GGCGCCACTG | 0.956

Sequence | switch fluorescence ratio
CCTCTGGGGT | 1.57
ATACCGGGTC | 1.02
TAATCTGACA | 1.03
AACGGGTCAT | 1.04
AGACGGATCT | 0.964
AAAAGCGCCT | 1.14
CAAATATTTG | 0.979
GGGAAACCTC | 0.998
GACCCTAAAT | 1.02
TCAACCCTTT | 1.01
AGCGAGGTTC | 1.02
AATAGGTTT | 0.998
AGTCTCTCTT | 0.962
TATAATCCTT | 1.07
CTTCCACCTT | 1.13
ATATGAGGGC | 1
GCATTCCAAC | 1.1
AATGACCTCT | 0.994
TTCTTCGGTG | 0.992
AAGTCGGGC | 0.97
AGGGTTCGCT | 1.02
CGACTAATTC | 1.32
TAATGGGGCT | 0.944
GGGTACTAAC | 1.05
GACTCGTAGG | 1.01
TGGGGGGTC | 0.938

Sequence | switch fluorescence ratio
TTTACGTCTG | 0.983
GCAATTACTT | 1.64
AGTCAGGCTG | 0.98
AAGTTATATT | 0.996
CGTTGCGCGA | 1.07
ACTTCCGTGG | 1.23
ACTGTGACCG | 1.04
CTGATATGGG | 1
TGAATAATTG | 0.944
CTGGGGAGAT | 0.998
AGAATTTCAG | 1
TGATATCTCA | 1.02
GTAAAACTCG | 0.852
CGTAGGACCT | 1
CTACGGTCGA | 1.02
TTAGAGCAGG | 1.04
GGGAACCGAA | 1.04
TCAGTGTAGA | 1.01
ATTTCTAACG | 1.06
ATTAATAGAT | 1.01
TGGCGGTGTA | 1.01
TAATTATAAG | 1.04
TGTCGGTT | 1.03
CCTGTCGCTT | 2.17
TGTGCAGGGA | 1.03
TGTGTGCCAG | 0.984

Sequence | switch fluorescence ratio
GATAGTGACG | 0.944
GACGCTATCA | 1.28
GAGTGGGAAT | 1.01
TTGAAAAGT | 1.03
ACAATAGGAA | 1.01
TAATGCCAGA | 1
TTTCTGCCCA | 1.02
TCGATTCAAG | 1
TCGGGTCTTG | 1.04
GAAGTCCTTG | 1.06
AAGCTAGGCA | 1.02
GCTAATACGA | 2.58
GCCGGCTTAT | 0.974
TGCGAGCAGA | 0.99
TCACCATAGC | 1.08
TTAAGTTTCT | 1.01
AAGATTGGAA | 1.01
GCTAGATAAA | 0.966
TGTAATGTAT | 1.02
TGGACTCACC | 1.35
GTGCCACTTG | 0.958
CATATTTTCT | 1.01
ATTGCACCGG | 0.967
CGACCTGAT | 1.13
CAGGGACCGT | 1.02
CACCGCCCAG | 1.38

Sequence | switch fluorescence ratio
GTCCCAATAA | 2.24
ATAAAAGTTG | 1.02
TACTCCAACT | 1.16
TAGAACGTTG | 1
GATCCGATTA | 1.01
CTTAGTAAGA | 1.01
AAAAATTGAG | 0.989
AATAAAGTTA | 1.04
ACGAAAGCCA | 1.07
AGAGAACGTG | 0.977
AACGAGATTA | 1.06
ACGAACATAC | 2.82
ATCTGGACTG | 0.932
ATACTCTGGG | 0.982
CACAGTCGCT | 0.993
CGACGGGAGC | 1.1
AGCTCGTGAG | 0.982
CGGTCTGTCT | 1.03
ACTCAATA | 3.56
GCGTCCTTTT | 0.999
CAGCCGGCGT | 1.06
GACACATTAA | 1.16
TAAGTTCGCG | 0.994
ATACAAGGT | 1.08
CCAGATAAGT | 1
ATGCAATTCA | 1.08

Sequence | switch fluorescence ratio
CTGTGTATGC | 1.05
GCACGAGGAC | 0.965
GGTCTTTTT | 0.977
TGGATACTGG | 0.969
GTGTAAGGAT | 1
AGCAGAAA | 1.19
AGGGAGTAA | 0.98
TCTCACATTA | 1.05
CTGAACTCAC | 1.17
AATATCATTT | 0.99
GAAACAGGCG | 1.03
TTGTCTTAAT | 0.979
AAGCATAGTA | 1.04
CGGCTGGGAC | 1.08
AGCATGGGGT | 1
TTATCATGT | 1.02
TGATTTAGTG | 0.965
ATGAGTACCT | 1.09
TGGGTAATTC | 1.03
TAATACAGAC | 1.03
GATATATTGA | 1.05
AGGAGAACCC | 1
GCCTGGCCAC | 1.02
ATGGTTGCA | 0.985
GAAATGACCT | 1.43
AAGGACAGAG | 0.947

Sequence | switch fluorescence ratio
ACACAGGGCA | 1.05
ATAGACGTGG | 1.04
TTGTGTAT | 1.02
ATCCTGATCT | 1.04
TCGGTAACGT | 0.975
TTAGCTACGT | 1.04
GGAAACCCCA | 1.05
CATTTTATGG | 0.962
TAACCTGGCT | 1.07
GACGACTAAG | 1.09
CTCGGCAGGA | 1.76
TAAAAGCGTG | 0.984
AGTTCATTTA | 1.02
GGTATCAGAA | 1.01
CGCGTGTGAC | 1.06
AAGTTTGCAC | 1.05
GCTAGGGGAT | 0.946
GACTCACTTT | 1.13
CGTATGGAAG | 0.995
